Laboratory results published in the supplement of paper PMC4604168 (melanoma cell lines).
The list shows a part of the results. Many values rest on one well or one pass, so single values are uncertain.

Experiments:
Experiment in all cases: cell count relative to DMSO control; melanoma cells; higher = more viable cells
Details in all cases: library dose: low library concentration; 72 h
WM115 = system: WM115
WM1716 = system: WM1716
WM1745 = system: WM1745
WM3526 = system: WM3526
WM3619 = system: WM3619
WM451Lu = system: WM451Lu
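Also: cell number obtained by counting DAPI-stained nuclei in high-throughput microscope images with image analysis software, screen run in 1,536-well plates.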

Structure (SMILES)	cell count (WM115) [%]	cell count (WM1716) [%]	cell count (WM1745) [%]	cell count (WM3526) [%]	cell count (WM3619) [%]	cell count (WM451Lu) [%]
CS(=O)(=O)CCNCc1ccc(-c2ccc3ncnc(Nc4ccc(OCc5cccc(F)c5)c(Cl)c4)c3c2)o1 [lapatinib] + O=C(CCCCCCC(=O)Nc1ccccc1)NO [vorinostat] (first compound 0.8 µM, partner dose 0.08 µM)	84.4	119	96.4	86.2	84.8	88.1
CN1CCN(c2ccc3nc(-c4c(N)c5c(F)cccc5[nH]c4=O)[nH]c3c2)CC1 [Dovitinib] + COc1ccc(Cl)c(Nc2nc3ccccc3nc2NS(=O)(=O)c2cccc(NC(=O)C(C)(C)N)c2)c1 [XL147] (first compound 0.1 µM, partner dose 0.8 µM)	88.4	103	76.9	100	78.4	113
C[C@@H](Oc1cc(-c2cnn(C3CCNCC3)c2)cnc1N)c1c(Cl)ccc(F)c1Cl [Crizotinib] + C[C@]1(c2nc3c(C(N)=O)cccc3[nH]2)CCCN1 [Veliparib] (first compound 0.2 µM, partner dose 1.4 µM)	83.9	92.1	86.7	89.4	106	110
C[C@@H](Oc1cc(-c2cnn(C3CCNCC3)c2)cnc1N)c1c(Cl)ccc(F)c1Cl [Crizotinib] + CC(C)CCN1c2nc(Nc3cc(F)c(O)c(F)c3)ncc2N(C)C(=O)C1C [BID1870] (first compound 0.2 µM, partner dose 0.2 µM)	93.8	95.4	104	126	111	112
CNC(=O)c1cc(Oc2ccc(NC(=O)Nc3ccc(Cl)c(C(F)(F)F)c3)cc2)ccn1 [sorafenib] + CN(NC(=O)CC(=O)NN(C)C(=S)c1ccccc1)C(=S)c1ccccc1 [STA4783] (first compound 0.4 µM, partner dose 0.006 µM)	82.4	60.2	21.1	88.1	44.5	79.3
CNC(=O)c1cc(Oc2ccc(NC(=O)Nc3ccc(Cl)c(C(F)(F)F)c3)cc2)ccn1 [sorafenib] + Cn1cc(/C=C2\C(=O)Nc3cccnc32)c2ccccc21 [GW441756] (first compound 0.4 µM, partner dose 0.4 µM)	97.9	93.1	100	112	115	101
C[C@@H](Oc1cc(-c2cnn(C3CCNCC3)c2)cnc1N)c1c(Cl)ccc(F)c1Cl [Crizotinib] + Nc1ccn([C@@H]2O[C@H](CO)[C@@H](O)C2(F)F)c(=O)n1 [gemcitabine] (first compound 0.2 µM, partner dose 0.0004 µM)	115	106	94.5	116	83.6	81
CS(=O)(=O)CCNCc1ccc(-c2ccc3ncnc(Nc4ccc(OCc5cccc(F)c5)c(Cl)c4)c3c2)o1 [lapatinib] + CO[C@@H]1[C@H](N(C)C(=O)c2ccccc2)C[C@H]2O[C@]1(C)n1c3ccccc3c3c4c(c5c6ccccc6n2c5c31)C(=O)NC4 [Midostaurin] (first compound 0.8 µM, partner dose 0.08 µM)	70.8	67.6	48	101	99.9	116
C=CCNC1=C2C[C@@H](C)C[C@H](OC)[C@H](O)[C@@H](C)/C=C(\C)[C@H](OC(N)=O)[C@@H](OC)/C=C\C=C(/C)C(=O)NC(=CC1=O)C2=O [Tanespimycin] + CCCCCCCCCCCC1=C(O)C(=O)C=C(O)C1=O [Embelin] (first compound 0.002 µM, partner dose 1.2 µM)	93.3	93.7	102	73.4	111	37.5
CNC(=O)c1cc(Oc2ccc(NC(=O)Nc3ccc(Cl)c(C(F)(F)F)c3)cc2)ccn1 [sorafenib] + CC(C)(C)c1cnc(CSc2cnc(NC(=O)C3CCNCC3)s2)o1 [SNS-032] (first compound 0.4 µM, partner dose 0.01 µM)	100	104	90.4	94.4	82.5	97.4
CNC(=O)c1cc(Oc2ccc(NC(=O)Nc3ccc(Cl)c(C(F)(F)F)c3)cc2)ccn1 [sorafenib] + O=C(Nc1cccc(Cl)c1)Nc1ncc(CCNc2ncnc3ccsc23)s1 [SNS314] (first compound 0.4 µM, partner dose 0.0008 µM)	66.7	89.6	89.9	99	97.7	90.7
CNC(=O)c1cc(Oc2ccc(NC(=O)Nc3ccc(Cl)c(C(F)(F)F)c3)cc2)ccn1 [sorafenib] + CS(=O)(=O)CCNCc1ccc(-c2ccc3ncnc(Nc4ccc(OCc5cccc(F)c5)c(Cl)c4)c3c2)o1 [lapatinib] (first compound 0.4 µM, partner dose 0.8 µM)	105	98.8	104	86.6	90.9	99.4
C=CCNC1=C2C[C@@H](C)C[C@H](OC)[C@H](O)[C@@H](C)/C=C(\C)[C@H](OC(N)=O)[C@@H](OC)/C=C\C=C(/C)C(=O)NC(=CC1=O)C2=O [Tanespimycin] + OCCn1cc(-c2cnc3nnn(Cc4ccc5ncccc5c4)c3n2)cn1 [PF04217903] (first compound 0.002 µM, partner dose 1 µM)	93.9	82.9	87.9	88	87.5	90.7
CNC(=O)c1cc(Oc2ccc(NC(=O)Nc3ccc(Cl)c(C(F)(F)F)c3)cc2)ccn1 [sorafenib] + Clc1ccc(Nc2nnc(Cc3ccncc3)c3ccccc23)cc1 [vatalanib] (first compound 0.4 µM, partner dose 2 µM)	104	104	100	77.6	95.1	109
CNC(=O)c1cc(Oc2ccc(NC(=O)Nc3ccc(Cl)c(C(F)(F)F)c3)cc2)ccn1 [sorafenib] + COC(=O)c1sccc1S(=O)(=O)Nc1ccc(Nc2ccccc2)cc1OC [GSK0660] (first compound 0.4 µM, partner dose 1 µM)	103	89.5	88	93.5	78.7	105
CNC(=O)c1cc(Oc2ccc(NC(=O)Nc3ccc(Cl)c(C(F)(F)F)c3)cc2)ccn1 [sorafenib] + c1cc(-c2cnn3cc(-c4ccc(OCCN5CCCCC5)cc4)cnc23)ccn1 [Dorsomorphin] (first compound 0.4 µM, partner dose 0.4 µM)	97.6	87.1	88.8	95.6	130	108
CNC(=O)c1cc(Oc2ccc(NC(=O)Nc3ccc(Cl)c(C(F)(F)F)c3)cc2)ccn1 [sorafenib] + O=C(O)c1ccc(-c2c[nH]c3ncc(-c4ccccc4)cc23)cc1C1CCCC1 [GSK650394] (first compound 0.4 µM, partner dose 0.16 µM)	97.5	93.8	106	107	110	96.4
CN1CCN(c2ccc3nc(-c4c(N)c5c(F)cccc5[nH]c4=O)[nH]c3c2)CC1 [Dovitinib] + Cc1ccc(NC(=O)c2cccc(N(C)C)c2)cc1NC(=O)c1ccc(O)cc1 [ZM336372] (first compound 0.1 µM, partner dose 2 µM)	79	110	83.8	79.4	111	79.8
CS(=O)(=O)CCNCc1ccc(-c2ccc3ncnc(Nc4ccc(OCc5cccc(F)c5)c(Cl)c4)c3c2)o1 [lapatinib] + C[C@]1(c2nc3c(C(N)=O)cccc3[nH]2)CCCN1 [Veliparib] (first compound 0.8 µM, partner dose 1.4 µM)	86.9	94.4	76.3	98.1	104	96.5
CN1CCN(c2ccc3nc(-c4c(N)c5c(F)cccc5[nH]c4=O)[nH]c3c2)CC1 [Dovitinib] + COc1cc(Nc2ncc(F)c(Nc3ccc4c(n3)NC(=O)C(C)(C)O4)n2)cc(OC)c1OC [Tamatinib] (first compound 0.1 µM, partner dose 0.4 µM)	93.4	90.8	65.1	89.5	92.2	118
C=CCNC1=C2C[C@@H](C)C[C@H](OC)[C@H](O)[C@@H](C)/C=C(\C)[C@H](OC(N)=O)[C@@H](OC)/C=C\C=C(/C)C(=O)NC(=CC1=O)C2=O [Tanespimycin] + Nc1cccc2c1CN(C1CCC(=O)NC1=O)C2=O [lenalidomide] (first compound 0.002 µM, partner dose 1 µM)	91.7	102	95.1	83.4	74.7	87.2
C=CCNC1=C2C[C@@H](C)C[C@H](OC)[C@H](O)[C@@H](C)/C=C(\C)[C@H](OC(N)=O)[C@@H](OC)/C=C\C=C(/C)C(=O)NC(=CC1=O)C2=O [Tanespimycin] + COc1cc(Nc2ncc(F)c(Nc3ccc4c(n3)NC(=O)C(C)(C)O4)n2)cc(OC)c1OC [Tamatinib] (first compound 0.002 µM, partner dose 0.4 µM)	77.5	91.7	62.5	85.3	81.4	89.9
CNC(=O)c1cc(Oc2ccc(NC(=O)Nc3ccc(Cl)c(C(F)(F)F)c3)cc2)ccn1 [sorafenib] + Nc1nc(F)nc2c1ncn2[C@@H]1O[C@H](CO)[C@@H](O)[C@@H]1O [fludarabine] (first compound 0.4 µM, partner dose 0.2 µM)	101	91.8	93.9	47.4	87.4	48.4
